Data from publication PMC4729865.
Results are given in words; binding and its absence hold for the method and conditions named. For some of these results: Binding seen in cells or lysates may run through a third protein. Some entries that bind do so weakly or less than the wild type. Sequences can lack the tags named with a protein.

Sequences of proteins named here, by UniProt entry; tags and fusion partners are left off. A change or cut given only in a name is not applied to a line headed by its entry. A line that says so, or that is headed by a name, gives the form on record, which may keep a tag or linker.
UniProt Q9H081: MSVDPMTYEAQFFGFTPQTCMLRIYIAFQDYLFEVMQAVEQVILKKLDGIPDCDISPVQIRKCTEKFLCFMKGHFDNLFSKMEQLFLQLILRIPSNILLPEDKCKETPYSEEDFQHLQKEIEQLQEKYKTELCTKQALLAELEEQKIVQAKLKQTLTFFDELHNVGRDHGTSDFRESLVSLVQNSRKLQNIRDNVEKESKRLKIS
Mis12 with deletion of amino acids 111–140 (Q9H081, form named): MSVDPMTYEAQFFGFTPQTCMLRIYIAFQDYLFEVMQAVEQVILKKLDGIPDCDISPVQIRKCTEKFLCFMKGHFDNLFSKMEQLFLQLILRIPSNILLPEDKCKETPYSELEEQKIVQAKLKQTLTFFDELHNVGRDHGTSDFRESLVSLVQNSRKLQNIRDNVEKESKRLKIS

Columns and labels:
[1] = target: T1, MBP-Cep57 (1–242 amino acids) (human) (UniProt Q86XR8); test: pull-down; about 0.2 μg MBP-Cep57 fragment coupled to Amylose Magnetic beads incubated with about 0.2 μg purified, eluted GST-tagged protein; washed five times with lysis buffer; western blotting with anti-GST; both purified
T1 sequence: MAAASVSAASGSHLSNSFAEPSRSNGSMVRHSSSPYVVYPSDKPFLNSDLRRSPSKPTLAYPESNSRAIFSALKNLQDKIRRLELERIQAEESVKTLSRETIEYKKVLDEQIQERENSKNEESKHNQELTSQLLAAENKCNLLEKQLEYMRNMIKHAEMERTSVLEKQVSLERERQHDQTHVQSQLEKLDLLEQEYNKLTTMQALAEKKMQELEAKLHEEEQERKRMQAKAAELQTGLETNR

[2] = target: T2, Cep57, yeast two-hybrid fusion (human) (UniProt Q86XR8); test: two-hybrid; Matchmaker system; bait vector pGBKT7 and prey vector pGADT7 co-transformed into AH109 yeast; growth on quadruple-selective medium (Trp-, Leu-, His-, Ade-), 2-5 days at 30 °C
T2 sequence: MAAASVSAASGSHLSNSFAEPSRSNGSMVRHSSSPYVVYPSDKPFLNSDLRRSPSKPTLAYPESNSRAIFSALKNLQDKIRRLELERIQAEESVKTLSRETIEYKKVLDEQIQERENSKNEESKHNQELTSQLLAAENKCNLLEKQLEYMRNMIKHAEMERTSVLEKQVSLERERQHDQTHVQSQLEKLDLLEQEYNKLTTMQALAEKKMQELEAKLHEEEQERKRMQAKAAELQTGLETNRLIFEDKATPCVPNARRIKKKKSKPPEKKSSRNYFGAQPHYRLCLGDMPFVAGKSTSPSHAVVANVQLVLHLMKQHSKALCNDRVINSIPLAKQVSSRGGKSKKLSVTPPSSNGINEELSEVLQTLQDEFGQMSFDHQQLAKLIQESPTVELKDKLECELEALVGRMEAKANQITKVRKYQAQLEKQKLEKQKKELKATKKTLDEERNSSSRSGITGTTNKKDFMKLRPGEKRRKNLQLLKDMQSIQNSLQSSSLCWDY

[3] = target: T3, GST-Cep57 (1–242 amino acids) (human) (UniProt Q86XR8); test: pull-down; GST-tagged Cep57 fragments on Glutathione Sepharose 4B beads incubated with lysates of HEK293T cells overexpressing the partner, 4 h at 4 °C; western blotting; only the target purified
T3 sequence: T1 sequence

Cep57-GFP (human) = target: T4, Cep57-GFP (human) (UniProt Q86XR8); test: co-IP; lysates of co-transfected HEK293T cells (150 mM NaCl, 1 mM MgCl2, 50 mM Hepes pH 7.4, 1 mM EGTA, 0.5% Triton X-100); antibody 4 h at 4 °C, protein A-Sepharose 2 h; western blotting
T4 sequence: T2 sequence

| binding [1] | binding [2] | Substance | further results |
| --- | --- | --- | --- |
| no binding | – | GST-Mis12 L132G (from UniProt Q9H081 1-205) | – |
| – | no binding | Mis12 L132G, yeast two-hybrid fusion (from UniProt Q9H081 1-205) | – |
| no binding | – | Mis12 with deletion of amino acids 111–140 (from UniProt Q9H081 1-205) | – |
| – | no binding | Mis12 with deletion of amino acids 131–140, yeast two-hybrid fusion (from UniProt Q9H081 1-205) | – |
| – | binds | Mis12, yeast two-hybrid fusion (from UniProt Q9H081 1-205) | – |
| – | – | Mis12-HA (from UniProt Q9H081 1-205) | binding [3]: binds; binding (Cep57-GFP (human)): binds |
